Reference: PubChem BioAssay AID1347073 (National Center for Advancing Translational Sciences (NCATS), 2019)
Out of some 45,000 compounds screened, about 200 (0.44%) were called active. Another 7% or so got no clear call; they are omitted. The call rests on the fitted dose curve; in most records, active means well fitted activation curve with a large enough effect; inconclusive means small, poorly fitted or top-dose-only effect; inactive means no such curve, though single readings can be large or run the other way. The list shows a part of the results.

assay: qHTS of TDP-43 Inhibitors: NCGC Sytravon Library Screen; conditions: yeast TDP-43 toxicity rescue, BacTiter-Glo growth, 24 h; series mostly up to 46.1 µM; growth rescue (activation): at the top concentration; further: 0% is about no effect; nearly all actives have a fitted effect of over 55% in size
Summary of the method: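 TDP-43-expressing yeast, pregrown in raffinose, seeded at OD600 0.02 in galactose medium with compound for 24 hr at 30 deg C. Growth read by BacTiter-Glo luminescence, so rescue of toxicity appears as activation.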

SMILES	growth rescue (activation)
COc1ccc(C2C(C(=O)c3ccco3)=C(O)C(=O)N2CCN2CCOCC2)cc1 (centres undefined)	inactive: -7.78%
CCOC(=O)c1c(C)c(C(=O)NCc2ccco2)c(C)n1CC	inactive: -1.1%
Cc1nn(Cc2ccc(F)cc2Cl)c(C)c1[N+](=O)[O-]	inactive: 24.3%
Cc1cc(C(=O)N/N=C/c2ccc(-c3cccc(Cl)c3)o2)n[nH]1	inactive: -1.22%
COc1ccc(C(=O)NNC(=O)CCC(=O)Nc2cc(C)on2)cc1	inactive: -21.1%
CN(/N=C/c1ccc(N(C)C)cc1)C1=NS(=O)(=O)c2ccccc21	inactive: 12.5%
Cc1ccc(C)c(NC(=S)NNC(=S)Nc2ccc(C(C)C)cc2)c1	inactive: 6.89%
O=C(NCC1CCCO1)c1ccccc1NS(=O)(=O)c1ccc(Br)s1 (centres undefined)	inactive: 14.3%
Cn1nc([N+](=O)[O-])nc1Sc1nnc(-c2ccccc2)o1	inactive: 27.8%
O=C(Nc1ncc(C(F)(F)F)cc1Cl)c1ccc(S(=O)(=O)N2CCOCC2)cc1	inactive: 9.8%
Cc1cc(C)c(C#N)c(Cl)n1	inactive: 5.37%
CCN(CC)CCNC(=O)c1ccccc1N	inactive: -16.5%
CN(C)C(CNC(=O)c1ccccc1C(F)(F)F)c1ccco1 (centres undefined)	inactive: -27.2%
Cc1nc(N2CCOCC2)[nH]c(=O)c1C	inactive: 8.92%
CCOc1ccc(Nc2nc(NCC3CCCO3)c3ccccc3n2)cc1 (centres undefined)	inactive: 23.1%
CS(=O)(=O)c1ccc(C(=O)NNC(=O)c2cc(-c3ccccc3)n[nH]2)cc1	inactive: -0.208%
COc1ccccc1N(CC(=O)Nc1ccc(Cc2ccncc2)cc1)S(=O)(=O)c1ccccc1	inactive: -10.9%
O=C(COC(=O)C1CCC1)Nc1ccc(Cl)cn1	inactive: -1.31%
Cc1cc(NC(=O)COC(=O)C2CC(=O)N(c3ccccc3)C2)no1 (centres undefined)	inactive: -15.5%
COc1ccc(/C=C2\SC(=S)N(CC(=O)NCCO)C2=O)cc1	inactive: -3.03%
CNC(=O)CN(c1ccc(Oc2ccccc2)cc1)S(=O)(=O)c1ccc(C)cc1	inactive: 7.04%
Cc1cc(C(=O)OCC(=O)NCc2cccs2)ccc1[N+](=O)[O-]	inactive: 11.9%
Cc1cc(CNC(=O)c2cc(COc3ccc(F)c(F)c3)on2)nn1C	inactive: 24.4%
Cc1cc(=O)[nH]c(SCC(=O)Nc2ccc(C)c(S(=O)(=O)N3CCCCC3)c2)n1	inactive: 25.9%
CCOC(=O)C1(C)CCN1C(=O)c1ccc(Cl)cc1Cl (centres undefined)	inactive: 23.3%
COc1ccc(NC(=O)/C(C#N)=C\C=C\c2ccco2)cc1	inactive: 1.39%
CS(=O)(=O)N(CCc1ccccc1)CC(=O)NCc1ccccc1Cl	inactive: 7.98%

SMILES	growth rescue (activation)
O=C(CSc1ccccc1)N/N=C/c1ccccc1O	inactive: 14.2%
COCCNC(=O)NC12CC3(C)CC(C)(CC(C)(C3)C1)C2	inactive: 11.6%
O=C1CCC(C(=O)N2CCN(c3ccccc3)CC2)CN1CC1CCCCC1 (centres undefined)	inactive: 0.358%
Cc1cccc(C)c1NC(=S)N1CCCN(Cc2ccc(F)cc2)C1	inactive: 12.7%
Cn1c(=O)[nH]c2c(nc(-c3ccc(Cl)cc3)n2C)c1=O	inactive: 9.49%
O=C(COc1ccccc1)NCC(=O)Nc1cccc(S(=O)(=O)NC2=NCCC2)c1	inactive: 0.026%
Cc1cc(C)c2nc(Nc3nc(CSc4nc5ccccc5[nH]4)cc(=O)[nH]3)nc(C)c2c1	inactive: -18.1%
CSc1nc(-c2ccccc2)nc(NC(=O)C(C)C)c1C(C)=O	inactive: 9.82%
CCOc1ccc(N(C(=O)c2snc(C(N)=O)c2N)C(C)C(=O)NC2CCCCC2)cc1 (centres undefined)	inactive: 15.5%
Cc1cc(NC(=O)c2ccccc2-c2ccccc2C(=O)O)no1	inactive: -7.39%
O=C(CCCc1ccccc1)Nc1cccc(C(=O)O)c1	inactive: 3.22%
COc1cc(CCC(=O)OCC(=O)Nc2ccccc2C(C)C)cc(OC)c1OC	inactive: 29%
COc1ccc(/C=N/NC(=O)c2ccncc2)c(C(=O)O)c1OC	inactive: 6.13%
COc1cccc(/C=C/C(=O)OCC(=O)NC2CCCCCCC2)c1	inactive: 8.55%
COc1ccc(CN2CCN(CCc3ccccc3)C(CCO)C2)c(O)c1 (centres undefined)	inactive: -5.37%
CCOC(=O)C(=O)Nc1ccccc1C(=O)OC	inactive: 24.1%
CC(=O)NC(CC(=O)NCCOc1ccccc1F)c1ccccc1 (centres undefined)	inactive: -1.95%
CC(C)(C)c1ccc(C(=O)N2CCC2(C)C(=O)Nc2ccc3[nH]ncc3c2)cc1 (centres undefined)	inactive: 18.8%
Cc1cc(C(=O)COC(=O)c2ccc(O)cc2)c(C)n1CC1COc2ccccc2O1 (centres undefined)	inactive: -3.47%
Cc1csc(N/N=C/c2ccccn2)n1	inactive: 19.8%
O=C(C[n+]1cc(-c2ccccc2)n2c1CCCCC2)c1ccc(Cl)cc1	inactive: 11%
CC(=O)c1cccc(NC(=O)Nc2ccccc2)c1	inactive: 3.77%
O=C1c2ccccc2C(=O)C1c1ccc(O)cc1	inactive: 15.9%
COc1ccc(S(=O)(=O)N2CCC(C(=O)NCC3CC3)CC2)cc1	inactive: -21.4%
NC(=O)CN1CCN(C2CC(=O)N(CCc3ccccc3)C2=O)CC1 (centres undefined)	inactive: -7.7%
Cc1cc(C)cc(-n2c(SCC(=O)Nc3cccc(S(=O)(=O)NC4=NCCCCC4)c3)nc3ccccc3c2=O)c1	inactive: 22.9%
O=C(Nc1ccn(C2CC(OC(=O)c3ccccc3)C(CO)O2)c(=O)n1)c1ccccc1 (centres undefined)	inactive: 16.8%
